What all share (test): SPR
Experiment [1] deals with T1, soluble form of the extracellular domain of human CD40 (Creative BioMart) (human, UniProt P25942 fragment).
T1 construct: Bought

The target in a further experiment is T2, human mesothelin (human, UniProt Q13421 296-580, limits assumed).
T2 construct: also called Human MSLN

Experiment [2] addresses T3, soluble form of the extracellular domain of cynomolgus (cyno) CD40 (Creative BioMart) (cynomolgus, UniProt G7PG38 21-193).
T3 construct: extracellular domain; also called Cynomolgus CD40

One may read the Kd as the constant that tells how readily two partners part at equilibrium. The term koff denotes the rate constant with which the complex falls apart. As usually defined, the kon is the second-order rate constant of association. Read a low kon as slow association.

T1 sequence (P25942 21-193 limits assumed): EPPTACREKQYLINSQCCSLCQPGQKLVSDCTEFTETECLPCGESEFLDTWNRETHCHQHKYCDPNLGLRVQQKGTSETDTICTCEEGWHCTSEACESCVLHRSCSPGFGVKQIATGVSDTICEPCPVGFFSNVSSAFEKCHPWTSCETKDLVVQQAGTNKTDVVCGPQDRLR
Chain of human mesothelin (Q13421 other isoform, or with tags, fused parts or gaps limits assumed): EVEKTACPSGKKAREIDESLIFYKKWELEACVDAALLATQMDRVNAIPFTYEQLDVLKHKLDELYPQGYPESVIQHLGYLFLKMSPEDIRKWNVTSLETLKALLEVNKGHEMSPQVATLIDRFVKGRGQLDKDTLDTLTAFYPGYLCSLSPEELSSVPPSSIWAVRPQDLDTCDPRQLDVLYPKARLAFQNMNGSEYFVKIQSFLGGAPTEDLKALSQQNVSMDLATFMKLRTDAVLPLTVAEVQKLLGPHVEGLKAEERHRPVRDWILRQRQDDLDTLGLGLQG

B1: CF19 (bispecific antibody, human IgG1, kappa)
heavy: EVQLLESGGGLVQPGGSLRLSCAASGFTFSSYAMSWVRQAPGKGLEWVSAISGGGGRTYYADSVKGRFTISRDNSKNTLYLQMNSLRAEDTAVYYCAREEMAFRAYRFDIWGQGTLVTVSSASTKGPSVFPLAPSSKSTSGGTAALGCLVKDYFPEPVTVSWNSGALTSGVHTFPAVLQSSGLYSLSSVVTVPSSSLGTQTYICNVNHKPSNTKVDKKV[human IgG1 Fc with V273E (EU numbers) not written out]GGGGSGGGSGGGSGGGGSEVQLVESGGGLVQPGGSLRLSCAASGYSITSNYYWNWVRQAPGKGLEWMGYIRYDGSNNYNPSLKNRITISRDTSKNTFYLQMNSLRAEDTAVYYCARLDYWGQGTLVTVSSGGGGSGGGGSGGGGSGGGGSGGGGSDAQMTQSPSSLSASVGDRVTITCRSSQSLENTNGNTFLNWFQQKPGKAPKLLIYRVSNRFSGVPSRFSGSGSGTDFTLTISSLQPEDFATYYCLQVTHVPFTFGQGTKLEIKR
light: [about 200 residues not written out]
notes: IgG-scFv: MSLN76923 Fab
In experiment [1], B1 had a Kd of 0.04 µM, a koff of 0.017 s⁻¹ and a kon of 430000 M⁻¹ s⁻¹. In the experiment with human mesothelin, the affinity, expressed as Kd, was 0.028 µM; the koff is 0.0081 s⁻¹; the kon came out at 300000 M⁻¹ s⁻¹. In experiment [2], this molecule came in with a Kd of 0.022 µM, a koff of 0.018 s⁻¹ and a kon of 810000 M⁻¹ s⁻¹.
